The campaign covered roughly 370,000 compounds. About 500 (0.14%) were called active. The shares of active, inactive and inconclusive entries below differ from those in the screen. The call rests on the fitted dose curve; in most records, active means well fitted activation curve with a large enough effect; inconclusive means small, poorly fitted or top-dose-only effect; inactive means no such curve, though single readings can be large or run the other way. Potencies of inconclusive entries are left out as doubtful fits.
Assay: qHTS of alpha-syn Inhibitors; further: nearly all actives have a fitted effect of over 65% in size
Details: Yeast expressing alpha-synuclein, BacTiter-Glo, 24 h; Potency: growth rescue unless noted; series mostly up to 46.1 µM
Outline: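 Screening used galactose-induced yeast with toxic alpha-synuclein levels, exposed to compound for 24 hr at 30 deg C. Cell growth, read with BacTiter-Glo luminescence, gave the measured signal.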
With `O=S1(=O)N[C@H](Cc2ccccc2)COc2cccc(N3CCSCC3)c21` the Potency was inconclusive [activator, partial curve].
With `Cc1cc(=O)n(Cc2ccccc2)c2ccccc12` the Potency was “inactive”.
For `CC12CCC(C/C1=N/OC(=O)c1cccc([N+](=O)[O-])c1)C2(C)C` (stereo unspecified), the Potency was “inactive”.
In the case of `CC(C)c1ccc(NC2=CC(=O)CC(C)(C)C2)cc1`, the Potency is reported as inconclusive [activator, single point].
For `CCOc1ccc(CCNC(=O)CCn2cccc2)cc1OCC`, the Potency was “inactive”.
In the case of `CC(C)C(=O)Nc1cccc(NC2=NS(=O)(=O)c3ccccc32)c1`, the Potency is reported as inconclusive [activator, single point].
In the case of `COc1ccc(C=O)cc1COc1ccc2c(c1)OCO2`, the Potency is reported as “inactive”.
For `N#C/C(=C\c1c(F)cccc1Cl)C(=O)NC1CC1`, the Potency was “inactive”.
With `CC1CCN(C(=O)CCn2c(=O)oc3ccc(Cl)cc32)CC1` the Potency was “inactive”.
In the case of `Oc1ccc2ccccc2c1C=NNc1ccccn1`, the Potency is reported as inconclusive [activator, partial curve].
For `CCN(Cc1ccccc1)C(c1ccncc1)c1nnnn1C(C)(C)C` (stereo unspecified), the Potency was inconclusive [activator, single point].
In the case of `Oc1c(C(c2ccc(Cl)cc2)N2CCCC2)cc(Cl)c2cccnc12` (stereo unspecified), the Potency is reported as inconclusive [activator, single point].
In the case of `CN(Cc1ccccc1)c1nc2nonc2nc1N1CCCC(CN2CCCC2=O)C1` (stereo unspecified), the Potency is reported as inconclusive [activator, single point].
In the case of `COc1ccc(OCCC(=O)OCC(=O)NCc2ccco2)cc1`, the Potency is reported as “inactive”.
In the case of `Cc1cccc(C)c1-n1nnnc1C1(C)CCC(=O)N1Cc1ccco1` (stereo unspecified), the Potency is reported as inconclusive [activator, single point].
With `Cc1ccc(S(=O)(=O)c2nc(C)c3c(n2)CCC3)cc1` the Potency was inconclusive [activator, single point].
In the case of `Cc1cccc(C)c1NC(=O)C(c1ccncc1)n1c(=O)c(-c2ccccc2)nc2ccccc21` (stereo unspecified), the Potency is reported as inconclusive [activator, single point].
In the case of `CC1(C(=O)Nc2ccc3ccccc3c2)CCC(=O)N1CCc1c[nH]c2ccccc12` (stereo unspecified), the Potency is reported as inconclusive [activator, single point].
With `O=C(Nc1nc(-c2ccco2)c(-c2ccco2)s1)C1CC(=O)N(c2ccc3c(c2)OCCO3)C1` (stereo unspecified) the Potency was inconclusive [activator, single point].
For `O=C(Cc1ccccc1)c1ccc(O)cc1`, the Potency was “inactive”.
For `CC(C)C[C@@H]1COc2cccc(N3CCC[C@@H]3CO)c2S(=O)(=O)N1`, the Potency was inconclusive [activator, single point].
With `COCCN1C[C@@H](CO)O[C@@H](n2cnc3c(NCCCO)ncnc32)C1` the Potency was inconclusive [activator, single point].
For `Cc1nc2ccccc2nc1Nc1cccc(Cl)c1`, the Potency was “inactive”.
For `COc1ccccc1-c1nn(-c2ccccc2)cc1C(=O)N1CCc2ccccc2C1`, the Potency was inconclusive [activator, single point].
In the case of `Cc1ccc(Cc2c(-c3ccc(C)cc3)nc3c4ccccc4ccn23)cc1`, the Potency is reported as inconclusive [activator, single point].
With `COC(=O)[C@]12CCCCC=C1N(Cc1ccccc1)C(=O)[C@H](CC(=O)N1CCN(C(=O)c3ccco3)CC1)C2` the Potency was inconclusive [activator, single point].
With `COc1ccc(-c2nnn(CC(=O)NCc3ccc4c(c3)OCO4)n2)cc1OC` the Potency was “inactive”.
For `CC(C)(C)c1ccc(NC(=O)c2ccc(=O)[nH]n2)cc1`, the Potency was “inactive”.
In the case of `Cc1ccc2c(c1)C1CN(C)CCC1N2S(=O)(=O)c1ccc(Oc2ccc([N+](=O)[O-])cc2)cc1` (stereo unspecified), the Potency is reported as inconclusive [activator, single point].
For `CC1CC(C)(C)N2C(=O)C3(Nc4ccccc4S3)c3cccc1c32` (stereo unspecified), the Potency was inconclusive [activator, single point].
With `COC(=O)[C@@]1(Cc2ccc(OC)cc2)[C@H]2c3cc(C(=O)N4CCCC4)n(CCc4c[nH]c5ccccc45)c3C[C@H]2CN1C(=O)c1ccccc1` the Potency was inconclusive [activator, single point].
In the case of `NNc1ccc(Cc2ccc(Cl)cc2Cl)nn1`, the Potency is reported as “inactive”.
In the case of `CN(C)c1ccc(-n2cccc2/C=C/[N+](=O)[O-])cc1`, the Potency is reported as inconclusive [activator, single point].
With `COc1ccccc1CCN=C(N)NS(=O)(=O)c1cccs1` the Potency was inconclusive [activator, single point].
With `CC(C)c1ccc(CN(C)C(=O)c2ccc(S(=O)(=O)NCc3ccco3)cc2)cc1` the Potency was inconclusive [activator, single point].
With `O=C(Nc1ccc(Cl)c(C(F)(F)F)c1)c1ccncc1` the Potency was “inactive”.
For `C/C(=N/NC(=O)c1ccc(C(C)(C)C)cc1)c1ccccn1`, the Potency was inconclusive [activator, partial curve].
In the case of `COc1ccccc1N=Nc1ccc(O)c2ncccc12`, the Potency is reported as inconclusive [activator, single point].
With `CCc1cccc(C)c1NC(=O)COC(=O)C1CCN(S(=O)(=O)c2ccccc2)CC1` the Potency was “inactive”.
For `Cc1ccsc1-c1nc(CSCC(=O)NCc2ccc3c(c2)OCO3)c(C)o1`, the Potency was inconclusive [activator, single point].
For `CCc1nn(-c2ccccc2)c2c1-c1cc(OC)c(OC)cc1C1(N2)C(=O)Nc2ccccc21` (stereo unspecified), the Potency was “inactive”.
For `CCOC(=O)c1[nH]c(C)c(C(=O)N(CC)CC)c1C`, the Potency was inconclusive [activator, single point].
In the case of `CN(C)CCCNC(=O)C1CCNCC1`, the Potency is reported as inconclusive [activator, single point].
With `COc1cc2ncc(S(=O)(=O)c3ccccc3)c(N3CCC4(CC3)OCCO4)c2cc1OC` the Potency was “inactive”.
For `O=C(Cn1cc2c(n1)CCCCC2)Nc1ccccc1Br`, the Potency was inconclusive [activator, single point].
For `OC(c1ccc(Cl)c(Cl)c1)c1ncc(-c2cccc(F)c2)[nH]1` (stereo unspecified), the Potency was inconclusive [activator, single point].
In the case of `CCCCN1C[C@H](C)[C@@H](CC(=O)Nc2ccccc2)C1=O`, the Potency is reported as inconclusive [activator, single point].
For `CCCCCc1nc2c(C#N)c(-c3ccc(Cl)cc3)ccn2n1`, the Potency was “inactive”.
For `O=C(NC1CCCCC1)NS(=O)(=O)c1ccc2c(c1)CCC2`, the Potency was inconclusive [activator, single point].
In the case of `COc1ccc(NS(=O)(=O)c2cccc3nsnc23)cc1Cl`, the Potency is reported as inconclusive [activator, single point].
For `CN(C)c1ccc2c(=O)c3ccccc3oc2n1`, the Potency was inconclusive [activator, single point].
In the case of `CCOC(=O)c1ccc(N2C(=O)c3n[nH]c(-c4ccco4)c3C2c2cccc([N+](=O)[O-])c2)cc1` (stereo unspecified), the Potency is reported as “inactive”.
In the case of `CC1(C(=O)Nc2ccc3c(c2)OCO3)CCN1C(=O)CCC1CCCC1` (stereo unspecified), the Potency is reported as inconclusive [activator, single point].
In the case of `Cc1ccc(S(=O)(=O)n2cc(CO)c3ccccc32)cc1`, the Potency is reported as inconclusive [activator, partial curve].
For `CC(=O)c1ccc(NC(=S)N2c3ccccc3CC2C)cc1` (stereo unspecified), the Potency was inconclusive [activator, single point].
For `O=c1cc(CNc2ccc(Br)cc2)nc2sccn12`, the Potency was inconclusive [activator, single point].
In the case of `CCN(c1ccccc1)S(=O)(=O)c1ccc(C(=O)Nc2nnc(CSC)o2)cc1`, the Potency is reported as inconclusive [activator, single point].
With `CC(C)Cn1nc(NC(=O)c2cccs2)c2cc3ccccc3nc21` the Potency was “inactive”.
For `COc1ccc(-n2ncc(Cl)c(Cl)c2=O)cc1`, the Potency was “inactive”.
In the case of `CSCCC(N=C1NS(=O)(=O)c2ccccc21)C(=O)N1CCCC(C(N)=O)C1` (stereo unspecified), the Potency is reported as “inactive”.
In the case of `COc1cccc(CNC(=O)COC(=O)c2ccc(S(C)(=O)=O)c([N+](=O)[O-])c2)c1`, the Potency is reported as “inactive”.
For `CCn1c(SCc2ccc(C(=O)OC)o2)nc2sc3c(c2c1=O)CCCC3`, the Potency was inconclusive [activator, partial curve].
With `Cc1ccc(NC(=O)CSCC(=O)N(C)CC(=O)Nc2c(C)cccc2C)cc1` the Potency was inconclusive [activator, single point].
With `CC(C)(C)OC(=O)c1c(N)n(CCCN2CCCC2=O)c2nc3ccccc3nc12` the Potency was inconclusive [activator, single point].
With `COc1ccc(C2C(C(=O)N3CCN(c4ccccc4F)CC3)c3ccccc3C(=O)N2C)cc1` (stereo unspecified) the Potency was “inactive”.
For `C#CCN(C[C@@H]1[C@@H](OC(=O)NCc2ccccc2F)[C@@H](OC(=O)NCc2ccccc2F)Cn2c(=O)ccc(=O)n21)S(=O)(=O)c1ccc(C)cc1`, the Potency was inconclusive [activator, single point].
For `CC(=O)Nc1ccc(NC(=O)COC(=O)C2(c3ccc(Cl)cc3)CCCC2)cc1`, the Potency was inconclusive [activator, single point].
For `COc1cccc(C(=O)NCCc2sc(-c3cccc(C)c3)nc2C)c1`, the Potency was “inactive”.
For `COCCN(C(=O)CCc1ccccc1OC)c1nnc(-c2cccnc2)s1`, the Potency was inconclusive [activator, single point].
In the case of `COc1ccc2[nH]c(C(=O)N3CCN(c4ccccc4F)CC3)c(C)c2c1`, the Potency is reported as “inactive”.
For `C(=N\n1cnnc1)/c1ccc2ncccc2c1`, the Potency was inconclusive [activator, single point].
Potency means the concentration at half of the fitted maximal effect; tags describe the fitted curve by direction and shape.
